Laboratory results from PubChem BioAssay AID686971 (National Center for Advancing Translational Sciences (NCATS), 2013).
Hit rate of the full screen: of about 360,000 compounds, about 7,500 (2.1%) were called active. Inconclusive means that the source gave no clear call. Such entries were picked first, then a sample of the others. The call rests on the fitted dose curve; in most records, active means well fitted cell-killing curve with a large enough effect; inconclusive means small, poorly fitted or top-dose-only effect, or effect the other way, or another doubt; inactive means no such curve, though single readings can be large or run the other way. No potency is given beside an inconclusive call; the fits are too rough.

Experiment: qHTS for induction of synthetic lethality in tumor cells producing 2HG: qHTS for the HT-1080-IDH1KD cell line;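 on activity, negative = toxicity: 0% = DMSO wells and -100% = cell-free medium wells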
Settings: HT-1080 IDH1 knockdown viability, ATP luminescence, 48 h; activity, negative = toxicity: at 46.1 µM (top of the series) unless noted
Outline: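 Using the IDH1-knockdown HT-1080 line run in the same batch and compound series as the NT line, viability after 48 h at 37 °C was determined by CellTiter-Glo luminescence and expressed as % activity.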
Potency means the concentration at half of the fitted maximal effect; tags describe the fitted curve by direction and shape.

**Q.** With `COc1ccccc1NC(=O)C1=C(C)NC(SCC(=O)c2ccccc2)=C(C#N)C1c1ccco1` (stereo not given) as the compound, how does the Potency read?
**A.** inconclusive [cytotoxic, partial curve]

**Q.** Which Potency does the source give for `COc1cccc(N2CCN(C(=O)c3ccc(CS(=O)c4ccccc4Cl)o3)CC2)c1` (stereo not given) here?
**A.** active: 0.0082 µM

**Q.** Which Potency does the source give for `COc1cc2c(cc1OC)CN(C(=O)/C=C/c1cccs1)CC2` here?
**A.** active: 4.11 µM

**Q.** Which activity, negative = toxicity does the source give for `O=C(COc1cccnc1[N+](=O)[O-])N1N=C(c2ccc(Cl)cc2)CC1c1ccco1` (stereo not given) here?
**A.** inconclusive: -31.4% [cytotoxic]

**Q.** For `COc1cccc(OCC(O)CNC(C)c2ccccc2)c1` (stereo not given), which Potency is on record?
**A.** inconclusive [cytotoxic, single point]

**Q.** For `COc1cccc(Nc2nc(NCC3CCCO3)c3ccccc3n2)c1` (stereo not given), which Potency is on record?
**A.** inconclusive [cytotoxic, single point]

**Q.** Which Potency does the source give for `COc1cccc(C(C)(O)c2nc(-c3cccc(C(C)C)c3)cs2)c1` (stereo not given) here?
**A.** inconclusive [cytotoxic, single point]

**Q.** Which Potency does the source give for `Cc1cccc(CSc2nnc(-c3cnccn3)n2C)c1` here?
**A.** inconclusive [rising, partial curve]

**Q.** Which Potency does the source give for `O=C(Nc1ccccc1)c1ccc(=O)n(Cc2ccc(F)c(F)c2)c1` here?
**A.** inactive

**Q.** With `COc1cc(OC)c2c(-c3cccc(-c4ccc(NC(C)=O)cc4)c3)cc(=O)oc2c1` as the compound, how does the Potency read?
**A.** active: 0.92 µM

**Q.** For `CCc1ccc(NC(=O)CSc2ccc(-c3sc(C)nc3C)nn2)cc1`, which Potency is on record?
**A.** inconclusive [cytotoxic, partial curve]

**Q.** With `CCN(CC)c1ccc(S(=O)(=O)N2CCOCC2)cc1NC(=O)COC(=O)c1ccco1` as the compound, how does the Potency read?
**A.** inactive

**Q.** For `COC(=O)[C@H](CC(C)C)NC(=O)NCCC1=CCCCC1`, which Potency is on record?
**A.** inactive

**Q.** For `Cc1cccc(OCC(=O)Nc2ccc(S(=O)(=O)N3CCCC3)cc2)c1`, which Potency is on record?
**A.** inactive

**Q.** With `CC(C)N(C(=O)COC(=O)CNC(=O)c1ccc(Br)cc1)c1ccccc1` as the compound, how does the Potency read?
**A.** inactive

**Q.** For `CCN(CC)CCCNC(=O)c1cc2c(Cl)nc3ccccc3c2s1`, which Potency is on record?
**A.** inconclusive [cytotoxic, single point]

**Q.** For `O=C1OC(c2ccccc2)=N/C1=C\C=C\c1ccccc1[N+](=O)[O-]`, which Potency is on record?
**A.** inconclusive [rising, single point]

**Q.** With `CCC(C)N(C)Cc1cccc(C2(O)CCN(S(=O)(=O)c3ccc(F)cc3)CC2)c1` (stereo not given) as the compound, how does the Potency read?
**A.** inconclusive [cytotoxic, single point]

**Q.** For `COc1ccc(/C=C/C(=O)N(CCC(N)=O)c2ccccc2)cc1S(=O)(=O)N1CCOCC1`, which Potency is on record?
**A.** inactive

**Q.** With `CC1C(=O)N(Cc2cn(CCC3OCCO3)nn2)CCS(=O)(=O)N1Cc1ccc(-c2ccc(Cl)cc2)cc1` (stereo not given) as the compound, how does the Potency read?
**A.** inconclusive [cytotoxic, single point]
